# PubChem BioAssay AID588855 (National Center for Advancing Translational Sciences (NCATS), 2011)
# Hit rate of the full screen: of about 410,000 compounds, about 5,000 (1.2%) were called active. The shares of active, inactive and inconclusive entries below differ from those in the screen. The call rests on the fitted dose curve; in most records, active means well fitted inhibition curve with a large enough effect; inconclusive means small, poorly fitted or top-dose-only effect; inactive means no such curve, though single readings can be large or run the other way. A potency beside an inconclusive call is a rough fit, not a confirmed value.
# Experiment: qHTS for Inhibitors of TGF-b; further: nearly all actives have a fitted effect of over 65% in size
# Settings: HepG2 CAGA-GFP TGF-b/SMAD3 reporter, GFP fluorescence, 18 h, TGF-beta stimulated, 500 pg/mL final; series mostly up to 46.1 µM
# How it was run: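 Using HEPG2 CAGA-GFP reporter cells at 1000 cells/well, we pinned test compounds, stimulated with recombinant TGF-beta (500 pg/mL final) and measured total well GFP after 18 h.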
# Potency means the concentration at half of the fitted maximal effect; tags describe the fitted curve by direction and shape.
row,Compound,Potency
1,Cc1ccccc1-n1c(SCC(=O)NCc2cccs2)nc2ccccc2c1=O,inactive
2,COc1ccc(-c2nc3ccc(C)cn3c2Cc2ccccc2)cc1OC,"inconclusive: 11.2 µM [inhibitor, partial curve]"
3,COc1cccc(C2c3c(oc4ccccc4c3=O)C(=O)N2CCCN2CCOCC2)c1OC (configuration not stated),inactive
4,O=C(Nc1ccccc1-c1ccccc1)C12CC3CC(CC(C3)C1)C2,"inconclusive: 35.5 µM [inhibitor, single point]"
5,Cc1ccc(-c2nonc2NC(=O)c2ccco2)cc1C,inactive
6,CS(=O)(=O)c1ccc2nc(NC(=O)c3ccc(Cn4cc(Br)cn4)o3)sc2c1,"inconclusive: 35.5 µM [inhibitor, single point]"
7,CCOC(=O)c1nnn(-c2nonc2N)c1COc1ccccc1,"inconclusive: 35.5 µM [inhibitor, partial curve, poor fit]"
8,COc1cc(OC)c2ccc(=O)oc2c1C(CCN1CCCC1)c1ccc2c(c1)OCO2 (configuration not stated),inactive
9,CN(c1ccccc1)C1CCCCC1NS(=O)(=O)c1ccc(Cl)cc1 (configuration not stated),active: 11.2 µM
10,CCC1=C(OC(=O)N(CC)CC)N2C(=O)OC(=NCC(=O)OC)[C@]2(Cc2ccccc2)[C@H]2C1=CC[C@H]1C(=O)N(c3ccccc3)C(=O)[C@H]12,"inconclusive: 17.8 µM [inhibitor, single point]"
11,COc1ccc(-n2nc(C(=O)NCC(=O)Nc3cc(Cl)c(OC)cc3OC)c3ccccc3c2=O)cc1,inactive
12,N=C(N)SCc1cccc2c(=O)cc(-c3ccccc3)oc12,"inconclusive: 25.1 µM [inhibitor, single point]"
13,CS(=O)(=O)c1ccccc1-c1nc(-c2cc(C(F)(F)F)cc(C(F)(F)F)c2)no1,inactive
14,O=C(Cc1cccs1)Nc1ccccc1NC(=O)Cc1cccs1,"inconclusive: 0.501 µM [inhibitor, partial curve, poor fit]"
15,c1ccc(C(c2ccccc2)c2noc(CN3CCC(c4ccncc4)CC3)n2)cc1,inactive
16,CCOC(=O)c1c(NC(=O)Cn2nnc3ccccc32)sc2c1CCC(C)C2 (configuration not stated),inactive
17,CN(C(=O)CSc1nc2ccccc2n1Cc1cccc(C(F)(F)F)c1)c1ccccc1,"inconclusive: 6.31 µM [inhibitor, single point]"
18,N#CCSc1nc2sc3c(c2c(=O)n1C1CCCCC1)CCCC3,inactive
19,O=C(c1ccc(S(=O)(=O)Cc2cc(F)ccc2F)c([N+](=O)[O-])c1)N1CCCCC1,"inconclusive: 22.4 µM [inhibitor, single point]"
20,CCOc1ccc(S(=O)(=O)N(C(=O)c2ccncc2)c2ccc3oc(C)c(C(=O)OC)c3c2)cc1,"inconclusive: 11.2 µM [inhibitor, partial curve]"
21,CCOc1ccc(C2=CC(c3cc(Br)ccc3F)n3ncnc3N2)cc1Cl (configuration not stated),inactive

row,Compound,Potency
1,COc1ccc(-c2cc(C(=O)Nc3ccc(C(N)=O)cc3)c3ccccc3n2)cc1OC,"inconclusive: 25.1 µM [inhibitor, partial curve, poor fit]"
2,CC[C@H](CO)Nc1nc(Nc2cccc(Cl)c2)c2ncn(C(C)C)c2n1,active: 20 µM
3,COc1ccc(C)cc1NC(=O)CC(=O)Nc1ccc2nc3n(c(=O)c2c1)CCCCC3,"inconclusive: 35.5 µM [inhibitor, single point]"
4,Cc1cccc(C)c1Cn1c(C)c(C(=O)NCc2ccc(C#N)cc2)sc1=O,"inconclusive: 20 µM [inhibitor, single point]"
5,CSc1cccc(CN2CCC(CO)(Cc3cccc(C(F)(F)F)c3)CC2)c1,"inconclusive: 22.4 µM [inhibitor, single point]"
6,COc1cccc(Nc2nc(Nc3ccc(Cl)c(C(=O)O)c3)nc(C)c2[N+](=O)[O-])c1,inactive
7,Cc1ccc(-c2nc3ccccc3s2)cc1S(=O)(=O)N1CCCC1,"inconclusive: 7.94 µM [inhibitor, partial curve]"
8,CC(C)CN(CCCNC(=O)c1cn(C)c2ccc(S(=O)(=O)N(C)C3CCCCC3)cc2c1=O)CC(C)C,inactive
9,O=C(c1cc(COc2ccc(F)cc2Cl)on1)N1CCC(c2ccncc2)CC1,"inconclusive: 12.6 µM [inhibitor, partial curve, poor fit]"
10,O=C(c1ccc(Cl)c(S(=O)(=O)N2CCCCCC2)c1)N1CCCCC1,inactive
11,COc1ccc(CC(=O)n2[nH]c(=O)ccc2=O)cc1OC,"inconclusive: 11.2 µM [inhibitor, single point]"
12,Cc1cc(C)cc(NC(=O)c2sc3nc(C)cc(C)c3c2N)c1,"inconclusive: 12.6 µM [inhibitor, partial curve]"
13,O=C(COC(=O)c1ccc([N+](=O)[O-])o1)NCc1ccccc1,"inconclusive: 35.5 µM [inhibitor, single point]"
14,Cc1ccccc1-c1nnn(CC(=O)N2CCN(S(=O)(=O)c3ccc(Cl)cc3)CC2)n1,"inconclusive: 3.55 µM [inhibitor, partial curve, poor fit]"
15,CCOc1ccc(NC(=S)Nc2cc(OC)c(Cl)cc2OC)cc1,"inconclusive: 0.501 µM [inhibitor, full curve, poor fit]"
16,Cc1sc2ncnc(N3CCC(C(=O)NNC(=O)COc4ccc(Cl)cc4)CC3)c2c1C,"inconclusive: 8.91 µM [inhibitor, partial curve, poor fit]"
17,CCOc1ccc(NC(=O)Nc2cc(C)ccc2F)cc1,inactive
18,C=C1/C=C(\C)C(C)(O)CC(O)CC(=O)C(O)C(O)C(C)CC(C)OC(=O)/C(C)=C/CC/C=C/C(OC)C(O)CC(C)C1 (configuration not stated),"inconclusive: 35.5 µM [inhibitor, single point]"
19,Cc1ccc(-c2ccc(CN3C(C(C)C)C(=O)N(Cc4cn(CCC5OCCCO5)nn4)CCS3(=O)=O)cc2)cc1 (configuration not stated),"inconclusive: 12.6 µM [inhibitor, partial curve, poor fit]"
20,CSc1nc(N)nc2c1ncn2CC(=O)N1CCN(c2ccccn2)CC1,inactive
21,CCn1cc(C(=O)N2CCN(c3ccc(OC)cc3)CC2)c(=O)c2cc(S(=O)(=O)N(C)C3CCCCC3)ccc21,inactive
